According to PubChem BioAssay (NCATS):
Several values for one entry are separate records, joined by “and”; a condition that tells them apart may be missing. Equal values may be shown once. Inconclusive means that the source gave no clear call. Such entries were picked first, then a sample of the others. A potency beside an inconclusive call is a rough fit, not a confirmed value. Activity calls are given as the source filed them. The call rests on the fitted dose curve; in most records, active means well fitted inhibition curve with a large enough effect; inconclusive means small, poorly fitted or top-dose-only effect; inactive means flat fitted curve, though single readings scatter.

Test system: Zika virus NS2B-NS3 protease
Assay: Primary screen GU AMC qHTS for Zika virus inhibitors (AID 1347154); further: nearly all actives have a fitted effect of over 70% in size;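 on activity change, negative = inhibition: 0% = no-inhibitor control and -100% = no-enzyme control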
Conditions: Zika NS2B-NS3 unlinked protease, AMC fluorogenic substrate; series mostly up to 54.1 µM; activity change, negative = inhibition: at the top concentration
How it was run: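 Unlinked Zika NS2B hydrophilic domain–NS3 protease complex at 25 nM in 10 mM Tris-HCl pH 8.0, 0.01% Tween 20, with an AMC peptide substrate. Fluorescence change (340/450 nm) over 15 min at room temperature, normalized to controls, fitted to 4-parameter Hill.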
Potency means the concentration at half of the fitted maximal effect; tags describe the fitted curve by direction and shape.

| SMILES | Potency | activity change, negative = inhibition |
| --- | --- | --- |
| CC(C=CC1=C(C)CCCC1(C)C)=CC=CC(C)=CC(=O)O | inconclusive: 17.1 µM [inhibitor, partial curve] |  |
| C=C1C(=CC=C2CCC[C@]3(C)[C@@H]([C@H](C)CCCC(C)(C)O)CC[C@@H]23)C[C@@H](O)C[C@@H]1O | inconclusive: 6.81 µM [inhibitor, full curve] |  |
| N#C/C(=C\c1ccc(O)c(O)c1)C(=O)Nc1ccccc1 | inconclusive: 9.47 µM [inhibitor, partial curve] |  |
| O=C(Nc1ccccc1)OCC(CN1CCCCC1)OC(=O)Nc1ccccc1 (stereo unspecified) |  | inactive: -12.7% |
| O=c1onc2cnc3ccccc3n12 | inconclusive: 23.8 µM [inhibitor, single point] |  |
| CCc1ccc(C=C2SC(=S)NC2=O)cc1 | inconclusive: 2.71 µM [inhibitor, partial curve, poor fit] |  |
| O=C1NC(=O)C(=Cc2ccc3nccnc3c2)S1 | inconclusive: 0.591 µM [inhibitor, full curve, poor fit] |  |
| Cc1ccc(C(=O)Nc2cccc(C(F)(F)F)c2)cc1Nc1nc(-c2cccnc2)nc2c1cnn2C | inconclusive: 1.71 µM [inhibitor, partial curve] |  |
| CN(C)c1ccc(N=NS(=O)(=O)O)cc1 | inconclusive: 8.91 µM [inhibitor, full curve] |  |
| COc1cccc(-c2cc(=O)c3ccccc3o2)c1N | inconclusive: 42.3 µM [inhibitor, partial curve, poor fit] |  |
| CN(C)c1ccc(/C=C2\C(=O)Nc3ccccc32)cc1 | inconclusive: 37.7 µM [inhibitor, single point] |  |
| N=C1N=C(N)c2cc3ccccc3cc21 | active: 23.3 µM |  |
| NC(=O)c1ccc(-c2nc(-c3ccc4c(c3)OCCO4)c(-c3ccccn3)[nH]2)cc1 | inconclusive: 38.3 µM [inhibitor, single point] |  |
| O=C1c2c(O)cc(O)cc2O[C@H](c2cc(O)c(O)c(O)c2)[C@H]1O | inconclusive: 34.1 µM [inhibitor, single point] |  |
| COc1ccc(-c2coc3cc(O)ccc3c2=O)cc1 | active: 26.7 µM |  |
| CCCCc1oc2ccccc2c1C(=O)c1cc(I)c(OCCN(CC)CC)c(I)c1 | inconclusive: 16.1 µM [inhibitor, partial curve] |  |

| SMILES | Potency | activity change, negative = inhibition |
| --- | --- | --- |
| O=Nc1c(-c2c(O)[nH]c3cc(Br)ccc23)[nH]c2ccccc12 | inconclusive: 15.2 µM [inhibitor, partial curve] |  |
| Cc1[nH]c(=O)c(C#N)cc1-c1ccncc1 | inconclusive: 26.7 µM [inhibitor, single point] |  |
| CC1(C)Cc2c(sc(NC(=S)NC(=O)c3ccccc3)c2C(=O)O)CO1 | inconclusive: 24.1 µM [inhibitor, partial curve] |  |
| NNc1nncc2ccccc12 | inactive |  |
| N#CC(=C(N)Sc1ccccc1N)C(C#N)=C(N)Sc1ccccc1N | inconclusive: 21.5 µM [inhibitor, partial curve] |  |
| Cc1cc(C=c2sc3nc4ccccc4n3c2=O)c(C)n1-c1ccccc1 |  | inactive: 7.96% |
| CCC1(c2ccccc2)C(=O)NCNC1=O | inactive |  |
| CC(=O)Oc1ccccc1C(=O)O | inconclusive: 39.8 µM [inhibitor, partial curve, poor fit] and active: 21.2 µM |  |
| CC(=O)Oc1cccc2c1C(=O)c1c(OC(C)=O)cc(C(=O)O)cc1C2=O | inconclusive: 15.8 µM [inhibitor, single point] |  |
| COc1cc2nc(N3CCCN(C)CC3)nc(NC3CCN(Cc4ccccc4)CC3)c2cc1OC | active: 27.1 µM |  |
| O=C(O)c1ccccc1NCCc1ccccc1 | active: 31.6 µM |  |
| Oc1cc(O)cc(C=Cc2ccc(O)c(O)c2)c1 | active: 13.6 µM |  |
| Cc1ccc(-n2nc(C(C)(C)C)cc2NC(=O)Nc2ccc(OCCN3CCOCC3)c3ccccc23)cc1 | inconclusive: 30.4 µM [inhibitor, single point] and inconclusive: 28.7 µM [inhibitor, single point] |  |
| COc1cccc2c1C(=O)c1c(O)c3c(c(O)c1C2=O)C[C@@](O)(C(=O)CO)C[C@@H]3O[C@H]1C[C@H](N)[C@H](O[C@@H]2CCCCO2)[C@H](C)O1 | inconclusive: 32.2 µM [inhibitor, single point] |  |
| CCCCCCCCOc1ccccc1C(=O)Nc1ccc(C(=O)OCC[N+](C)(CC)CC)cc1 | inconclusive: 34.1 µM [inhibitor, single point] |  |
